# Among all 310,000 compounds or so, about 2,200 (0.71%) showed an effect of 50% or more. The effect is printed as a negative number. The list shows a part of the results.
# Target: human ether-à-go-go-related gene (hERG) potassium channel (human, UniProt Q12809)
# Experiment: primary screen, population patch clamp on CHO cells stably expressing hERG
# Sequence of human ether-à-go-go-related gene (hERG) potassium channel (Q12809 whole entry, looked up): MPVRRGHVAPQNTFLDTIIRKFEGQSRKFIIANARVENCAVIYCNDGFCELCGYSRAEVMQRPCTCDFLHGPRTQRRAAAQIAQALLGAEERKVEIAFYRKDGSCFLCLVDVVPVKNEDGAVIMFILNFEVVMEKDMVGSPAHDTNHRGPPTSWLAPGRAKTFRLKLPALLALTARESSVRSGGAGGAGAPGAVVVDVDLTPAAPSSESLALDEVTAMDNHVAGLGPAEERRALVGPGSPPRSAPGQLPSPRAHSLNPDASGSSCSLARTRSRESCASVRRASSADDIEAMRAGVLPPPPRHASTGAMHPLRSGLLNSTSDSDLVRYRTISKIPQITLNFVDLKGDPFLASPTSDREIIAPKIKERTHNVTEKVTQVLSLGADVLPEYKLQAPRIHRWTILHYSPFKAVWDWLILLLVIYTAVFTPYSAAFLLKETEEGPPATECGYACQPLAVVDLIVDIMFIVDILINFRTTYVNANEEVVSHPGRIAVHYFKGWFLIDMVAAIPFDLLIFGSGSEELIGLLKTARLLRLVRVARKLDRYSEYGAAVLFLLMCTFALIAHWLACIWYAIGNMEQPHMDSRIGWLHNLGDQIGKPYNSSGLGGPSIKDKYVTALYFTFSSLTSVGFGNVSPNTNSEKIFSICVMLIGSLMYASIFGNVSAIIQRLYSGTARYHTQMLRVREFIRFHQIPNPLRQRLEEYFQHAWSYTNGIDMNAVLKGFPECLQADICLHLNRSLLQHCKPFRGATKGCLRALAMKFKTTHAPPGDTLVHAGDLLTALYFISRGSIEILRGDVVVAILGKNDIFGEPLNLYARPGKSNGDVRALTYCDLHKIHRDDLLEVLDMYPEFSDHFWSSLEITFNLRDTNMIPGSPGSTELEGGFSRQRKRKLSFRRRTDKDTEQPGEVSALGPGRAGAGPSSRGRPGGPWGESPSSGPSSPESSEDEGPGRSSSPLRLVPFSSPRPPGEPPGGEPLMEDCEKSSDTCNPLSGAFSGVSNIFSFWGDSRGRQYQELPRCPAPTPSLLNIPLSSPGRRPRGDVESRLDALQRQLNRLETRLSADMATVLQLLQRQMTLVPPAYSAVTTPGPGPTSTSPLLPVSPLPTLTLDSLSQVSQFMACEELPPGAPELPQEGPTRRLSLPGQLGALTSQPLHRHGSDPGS
row,SMILES,"hERG current change (%, negative = inhibition) at 1uM [%]"
1,COCCNC(=O)CN(C(=O)Cn1nnc2ccccc21)c1cccc(C)c1C,4.11
2,CCCn1nc(C(=O)Nc2nnc(CC)s2)c2ccccc2c1=O,5.44
3,CSCCC(NS(=O)(=O)c1ccccc1)C(=O)OC(C)C(=O)Nc1ccc(Cl)cn1 (stereo not drawn),7.33
4,Cc1cc2cc(CNC(=O)c3cccs3)ccc2[nH]1,13.6
5,Cc1ccccc1NC(=O)c1cc(S(=O)(=O)c2ccccc2)ccc1Cl,8.97
6,Cc1c(C(=O)NC(c2ccccn2)C(F)(F)F)oc2c(F)cccc12 (stereo not drawn),12.1
7,CCC(C)[C@H](NC(=O)N1CC(=O)Nc2ccccc21)C(=O)N1CCC(C(=O)O)CC1 (stereo partly drawn),15.2
8,Cc1cc(Cl)ccc1OCC(=O)OCC(=O)Nc1cccnc1Cl,4.73
9,CCC(=O)Nc1cccc(C2=NOC3(C2)C[C@@H](C(N)=O)N(C(=O)CC(c2ccccc2)c2ccccc2)C3)c1 (stereo partly drawn),4.24
10,Cc1ccc(C(=O)c2cc([N+](=O)[O-])ccc2N2CCCCC2)cc1,5.9
11,O=C(NC1CCCCC1)C1CC(=O)N(Cc2ccccc2)C1 (stereo not drawn),13.3
12,COc1ccc(C(=O)Nc2ccc(NC(=O)c3ccccc3F)cn2)cc1,12.9
13,O=C(NNC(=S)Nc1ccccc1Cl)c1ccccc1,4.02
14,COc1ccc(NC(=O)c2ccc3c(c2)OCO3)cc1[N+](=O)[O-],13
15,CN(C)c1ccc(CNn2cnnc2SCc2ccccc2F)cc1,-3.75
16,CCC(C)C(=O)Nc1cccc(SC)c1 (stereo not drawn),13.6
17,O=C(c1nc2ccccn2c1CNCC1OCCc2ccccc21)N1CCOCC1 (stereo not drawn),10.1
18,CCN(CC(=O)NCc1ccc(F)cc1)C(=O)c1ccc(Cl)cc1,-2.66
19,COc1ccc(-c2noc(CN(C(=O)c3c(-c4ccccc4Cl)noc3C)C(C)C)n2)cc1,10.8
20,CC1(C)Cc2c(cnn2-c2ccccc2)-c2c1c1ccccc1n2CC(O)CCl (stereo not drawn),4.97
21,Cc1cc(C(=O)Nc2ccccc2C(F)(F)F)no1,16.3
22,CC(=O)NC(CCS(C)(=O)=O)C(=O)N1CCc2ccccc21 (stereo not drawn),4.59
23,N#CCCN1CCN(S(=O)(=O)c2ccc(S(=O)(=O)NCC3CCCO3)cc2)CC1 (stereo not drawn),5.57
24,O=C(NNC(=O)c1ccc2c(=O)n3c(nc2c1)CCC3)c1ccc(Cl)cc1,6.5

# Reference: article PMC4336329 (PLoS ONE, 2015)
